Laboratory results taken from PMC6919601, “Identification of Plasmodium dipeptidyl aminopeptidase allosteric inhibitors by high throughput screening” (PLoS ONE, 2019).
The whole screen tested about 110,000 compounds, of which about 230 (0.21%) showed an effect of 50% or more. This is one part of the list.

Target: DPAP1 (Plasmodium falciparum, UniProt Q8IIJ9)
Assay: primary screen, percent inhibition; read by cleavage of a fluorogenic dipeptide substrate; higher = more effect of the substance
Design: species or system P. falciparum D10 trophozoite lysates; single well
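Further: 30 min substrate incubation versus DMSO and 10 µM JCP410 controls.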

Chain of DPAP1 (Q8IIJ9 whole entry, looked up): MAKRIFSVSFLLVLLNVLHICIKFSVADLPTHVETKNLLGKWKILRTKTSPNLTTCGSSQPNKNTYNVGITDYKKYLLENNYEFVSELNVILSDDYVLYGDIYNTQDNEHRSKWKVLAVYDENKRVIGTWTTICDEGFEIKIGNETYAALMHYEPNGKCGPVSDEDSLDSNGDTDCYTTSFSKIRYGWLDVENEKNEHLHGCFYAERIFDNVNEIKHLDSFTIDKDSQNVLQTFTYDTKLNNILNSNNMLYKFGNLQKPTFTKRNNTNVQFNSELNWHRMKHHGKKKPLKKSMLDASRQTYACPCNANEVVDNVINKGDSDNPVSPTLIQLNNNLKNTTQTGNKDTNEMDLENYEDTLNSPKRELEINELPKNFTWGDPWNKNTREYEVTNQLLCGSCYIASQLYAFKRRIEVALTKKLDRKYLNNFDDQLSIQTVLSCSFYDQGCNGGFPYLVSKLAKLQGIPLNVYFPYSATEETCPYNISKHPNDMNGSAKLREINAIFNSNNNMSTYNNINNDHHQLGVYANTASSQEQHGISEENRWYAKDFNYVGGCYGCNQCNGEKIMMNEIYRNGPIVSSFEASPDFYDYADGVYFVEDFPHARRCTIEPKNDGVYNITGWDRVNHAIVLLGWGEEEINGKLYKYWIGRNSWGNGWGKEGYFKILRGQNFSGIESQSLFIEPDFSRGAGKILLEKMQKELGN

SMILES | % Inhibition @ 10 uM [%]
CCOC(=O)c1c(S(=O)(=O)N(C)C2CCCCC2)c(C)n(C)c1C | -5.28
Cc1nn(C)cc1CN(C)C(=O)C12CC3CC(CC(C3)C1)C2 | 2.42
COc1ccc(NC(=O)Cc2cccc3ccccc23)cc1 | -2.19
O=C(O)CS(=O)(=O)c1ccc(-c2ccc(S(=O)(=O)CC(=O)O)cc2)cc1 | -3.52
CN(C(=O)Cn1nnc2sc3c(c2c1=O)CCCC3)C1CCCCC1 | 2.41
COc1ccccc1C1C2=C(O)CC(C)(C)CC2=Nc2[nH]nc(-c3ccccc3)c21 (centres unmarked) | 3.02
CC(C)c1cc(C(C)C)c(S(=O)(=O)Nc2ccc(S(N)(=O)=O)cc2)c(C(C)C)c1 | 21.6
Fc1ccccc1N1CCN(C/C=C/c2ccccc2)CC1 | -7.34
O=C(CSc1nnc(Cc2ccccc2)o1)N1CCOCC1 | 2.97
N#CCNC(=O)[C@H](CC1CCCCC1)NC(=O)N1CCCCC1 | -0.214
C(=N\n1cnnc1)/c1cccc2ccccc12 | 6.23
CCOC(=O)c1c(NC(=O)c2cccc(Cl)c2)sc(C(C)=O)c1C | 1.18
Cc1nc2cc(-c3ccccc3)nn2c(C)c1C | 2.44
C[C@]12CCC(OC3CCCCO3)CC1CCC1C2CC[C@]2(C)C(O)CCC12 (some centres unmarked) | -2.87
Cc1ccc(S(=O)(=O)N(CC(=O)NCc2cccnc2)c2ccc(Cl)cc2)cc1 | 0.812
Nc1c(O)nc2ccc(Cl)c3c2c1-c1ccccc1C3=O | -5.62
COc1ccc(Nc2nc(N)nc(CSc3nc(C)cc(C)n3)n2)cc1 | -0.884
CCc1ccc(/C=C2/Sc3ccccc3C2=O)cc1[N+](=O)[O-] | -3.32
Cc1cc(=O)n(C)c(=O)n1Cc1ccccc1C(=O)O | -2.19
NC(=O)C1(N2CCCCC2)CCN(S(=O)(=O)c2cccs2)CC1 | 4.18
O=C(C1CCN(S(=O)(=O)c2ccc3[nH]c4c(c3c2)CCCCC4)CC1)N1CCCC1 | -8.07
O=S(=O)(c1ccc(S(=O)(=O)N(Cc2ccccn2)CC2CCCO2)cc1)N1CCCCC1 (centres unmarked) | 0.401
CC(C)OCCCNC(=O)c1ccc2c(c1)nc(S)n1c3ccccc3nc21 | 2.07
CC(C)CCn1c(CN2CC(C)OC(C)C2)nc2c1c(=O)n(C)c(=O)n2C (centres unmarked) | -3.23
COc1ccc(NS(=O)(=O)c2ccc(NC(=O)C3CCCCC3)cc2)cc1 | -3.41

SMILES | % Inhibition @ 10 uM [%]
C=C(C)Cn1c(=S)[nH]c2c(c1=O)C(C)(C)Cc1ccccc1-2 | -0.929
CCC/N=c1\c(NS(C)(=O)=O)c(O)oc2ccccc12 | -4.46
CC1=C(C(=O)N2CCOCC2)C(c2ccsc2)C2=C(O)CCCC2=N1 (centres unmarked) | -2.24
CCOC(=O)C1=C(CN(CC)CC)N(C)C(=O)NC1c1ccccc1 (centres unmarked) | 1.13
COc1ccc(-c2cc(C(F)(F)F)c(C#N)c(SCC(=O)NC(C)C)n2)cc1OC | 6.27
CCOC(=O)N1CCC(n2c(SCc3ccc(C)cc3)nc3ccsc3c2=O)CC1 | 6.18
CCN(CC)C(=O)c1cc(-c2cc(C(=O)N(CC)CC)c3ccccc3n2)nc2ccccc12 | 1.12
CC(=O)Nc1cccc(NC(=O)c2ccc(F)cc2)c1 | -5.5
O=C(O)c1ccc(CNC(=O)C2CCC(CNS(=O)(=O)c3cccc4nsnc34)CC2)cc1 (centres unmarked) | -0.465
COc1ccccc1CN1CCC(N2CCCCC2)CC1 | -6.6
COc1cccc(N/C=C(\C#N)C(=O)NC(=O)Cc2ccccc2)c1 | -6.69
CCC(Oc1ccccc1)C(=O)Nc1nnc(S(=O)(=O)N2CCCCC2)s1 (centres unmarked) | -1.72
Cc1ccccc1CNC(=O)CN(c1cccc(F)c1)S(C)(=O)=O | -3.92
C/C(O)=C1/C(=O)NC(=O)N(c2ccc(Cl)cc2)C1=O | 4.15
CC(C)CC(C(=O)NCC#N)c1cccc(-c2cccc([SH+](O)(O)NCCN3CCOCC3)c2)c1 (centres unmarked) | 0.173
COc1ccccc1OCCn1c(CCNC(=O)C2CCCCC2)nc2ccccc21 | 6.31
Cc1cccc(NC(=O)CN2C(=O)N/C(=C/c3c[nH]c4ccccc34)C2=O)c1 | 1.92
O=[N+]([O-])c1ccc(N2CCCCC2)c2nonc12 | 7.13
CCNC(=O)c1ccc2c(c1)sc1nc(-c3ccc(OC)cc3)cn12 | 7.63
CCCCSc1nnc(NC(=O)CSc2nc3cccnc3[nH]2)s1 | 0.776
CCCCN(CCCC)CCNC(=O)CN1N=C(c2ccc(OC)cc2)CCC1=O | 4.81
Cc1nc2c3c(-c4ccc(C(C)C)cc4)nc(N4CCOCC4)nc3nn2c(C)c1CCC(=O)O | 4.23
CS(=O)(=O)CCC(C(=O)N1CCN(C(=O)c2ccco2)CC1)N1Cc2ccccc2C1=O (centres unmarked) | -4.38
COc1ccc(CN2CCN(c3ccccc3)CC2)cc1Br | -0.192
O=C(Nc1c(C(=O)NC2CCCCC2)cnn1-c1ccccc1)c1ccccc1 | -1.19

SMILES | % Inhibition @ 10 uM [%]
Cc1ccc(OCC(=O)Nc2ccc3ccccc3c2)cc1 | -5.11
Cc1cc2ccccc2n1-c1ccc(C(=O)N2CCOCC2)s1 | 1.95
CCOC(=O)N1CCC(NS(=O)(=O)c2cc(C(=O)OC)n(C)c2)CC1 | -2.84
CCC(C)Oc1ccc(/C=C2/NC(=O)NC2=O)cc1Br (centres unmarked) | 2.17
Cn1c(C(=O)NCCc2ccc(S(N)(=O)=O)cc2)cc2sc(Cl)cc21 | -4.85
COc1ccc(NC(=O)c2sc3nc4c(cc3c2N)CCCCC4)cc1OC | 2.82
N#Cc1c(N)nc2c(c1-c1ccsc1)CCCCCC2 | -2.7
NC(=O)c1cc2nc(-c3ccccc3)cc(C(F)(F)F)n2n1 | 2.65
CC(C)(C)c1ccc(C(=O)NC2(C(F)(F)F)NC(=O)N(C3CCCCC3)C2=O)cc1 (centres unmarked) | 0.221
N#CC1=C(N)Oc2ncnc(O)c2C1c1ccccc1C(F)(F)F (centres unmarked) | -2.78
COc1cccc(CN2CCN(Cc3ccc(Cl)cc3)CC2)c1OC | -10.5
COc1ccc2sc3ccccc3c(=O)c(=O)c2c1 | -17.7
CN1CCC(N(C)Cc2cccc(C(F)(F)F)c2)CC1 | 2.33
Cc1nn2c3c(cnc2c1-c1ccc(Cl)cc1)C(=O)CCC3 | -4.78
O=C(CN1CCN(Cc2ccc(Cl)cc2)C1=O)NCc1ccc(Cl)cc1 | -0.984
CCOC(=O)c1sc(N2C(=O)C(O)=C(C(=O)c3ccco3)C2c2ccc(C(C)(C)C)cc2)nc1C (centres unmarked) | 3.8
COc1ccc(S(=O)(=O)N(CC(=O)Nc2cccnc2)c2ccc(C)cc2)cc1Br | 1.62
Cc1ccccc1C1C=C(c2cccs2)Nc2nnnn21 (centres unmarked) | -5.19
COc1cccc(NC(=O)CN(c2cccc(Br)c2)S(C)(=O)=O)c1 | 1.67
CCOc1cccc2c1OC(c1cccc(OC)c1OC)N1N=C(c3ccc(C)o3)CC21 (centres unmarked) | 26.2
CC(C)=C1C2CCC1C(C(=O)Nc1cccc(C(F)(F)F)c1)C2C(=O)O (centres unmarked) | 3.91
CC1CCN(S(=O)(=O)c2ccc(NC(=O)CCCOc3ccccc3)cc2)CC1 | -0.185
Cc1ccccc1-c1nc(CS(=O)CC(=O)NCCCN2CCOCC2)c(C)o1 (centres unmarked) | 2.37
CCCCOc1ccc(Nc2cc(-c3ccccc3)nc(-c3ccccc3)n2)cc1 | 1.87
CCc1nn(CC(=O)N2CCOCC2)c(=O)c2cc3sccc3n12 | 3.4

SMILES | % Inhibition @ 10 uM [%]
COc1ccccc1NC(=O)C1=C(C)Nc2nc(CCCO)nn2C1c1ccc(O)cc1 (centres unmarked) | 3.53
CCCN(C/C=C/c1ccccc1OC)CCO | -1.78
CCCCCOc1ccc(C2c3c(oc4ccccc4c3=O)C(=O)N2c2nccs2)cc1OC (centres unmarked) | -0.828
Fc1ccc(C2CC(c3ccco3)n3ncnc3N2)cc1 (centres unmarked) | -8.62
CCOCCCNC(=O)C(c1ccc(Cl)cc1)N1CCOCC1 (centres unmarked) | 6.57
Fc1ccc(N2CCN(Cc3ccc(Cl)c(Cl)c3)CC2)cc1 | -3.13
c1cncc(CNCc2ccncc2)c1 | 3.36
CCN(CC)S(=O)(=O)NC(=O)Nc1nc(C)cc(C)n1 | 3.78
CC(=O)N(CN1C(=O)C2CCC(C)CC2C1=O)c1ccc(C)cc1 (centres unmarked) | 5.46
O=C(O)C1CCCCC1C(=O)Nc1ccc(F)c(F)c1 (centres unmarked) | -8.06
CCOC(=O)C1=C(C)NC(=O)N(C(C)=O)C1c1ccc(Cl)cc1 (centres unmarked) | -9.37
N#Cc1ccc(NC(=O)/C=C/c2ccccc2)cc1 | 6.18
Cc1c(OCc2ccccc2)ccc2c3c(c(=O)oc12)CCC3 | -3.98
CCn1c(C(=O)NCc2ccccc2F)cc2oc3ccccc3c21 | -8.96
COC(=O)C1=C(C)N(C)C(=O)NC1c1ccc(OC(F)(F)F)cc1 (centres unmarked) | 0.503
COc1ccc(-n2cc(-c3ccc(C)cc3)nc2SCC(=O)NCC2CCCO2)cc1 (centres unmarked) | 4.33
NC(=O)NC(c1ccc(Cl)cc1)c1ccc(Cl)cc1 | -7.06
Cn1c(-c2ccccc2)cn2c3ccccc3nc12 | -1.96
N#C/C(=C\c1cccc2ccccc12)c1nn(-c2ccccc2)c(N)c1C#N | 6.5
CS(=O)(=O)N(CCc1ccccc1)CC(=O)Nc1cc(C(F)(F)F)ccc1Cl | 2.82
COc1cc(C(=O)/N=c2\c(C)cccn2C(=O)c2cc(OC)c(OC)c(OC)c2)cc(OC)c1OC | 3.94
CCCC(=O)Nc1ccc(S(=O)(=O)Nc2nccs2)cc1 | 0.324
COCCNC(=O)Cn1cnc2sc(C)cc2c1=O | -2.17
